Reference: the supplement of paper PMC12217912
This is one part of the list. Sequences were assembled here from the parent chain. Inactive controls read about 0.05.

B1: TEV protease; numbered along this chain (parent)
chain: MGESLFKGPRDYNPISSSICHLTNESDGHTTSLYGIGFGPFIITNKHLFRRNNGTLVVQSLHGVFKVKDTTTLQQHLVDGRDMIIIRMPKDFPPFPQKLKFREPQREERICLVTTNFQTKSMSSMVSDTSCTFPSGDGIFWKHWIQTKDGQCGSPLVSTRDGFIVGIHSASNFTNTNNYFTSVPKNFMELLTNQEAQQWVSGWRLNADSVLWGGHKVFMVKPEEPFQPVKEATQL

Variants of: B1
Experiment: raw area under fraction-flipped curve 0-4 h after induction (AUC4h, not background-subtracted), DNA-recorder readout of cleavage of the substrate (dimensionless); higher = more cleavage of the substrate by the protease variant
Conditions: temperature: 34 °C; time window: 0-4 h after rhamnose induction
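Further: Bxb1 expression induced with 0.2% (w/v) L-rhamnose at OD600 near 0.5, cultures sampled hourly, flipped fraction per protease–substrate barcode pair counted by paired-end Illumina sequencing.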

| Variant | area with substrate FNLYFQS | area with substrate GNLYFQS | area with substrate HNLYFQS | area with substrate INLYFQS | area with substrate LNLYFQS | area with substrate MNLYFQS | area with substrate NNLYFQS | area with substrate PNLYFQS | area with substrate QNLYFQS | area with substrate SNLYFQS | area with substrate TNLYFQS | area with substrate WNLYFQS | area with substrate YNLYFQS | area with substrate KNLYFQS | area with substrate VNLYFQS | area with substrate RNLYFQS |
| --- | --- | --- | --- | --- | --- | --- | --- | --- | --- | --- | --- | --- | --- | --- | --- | --- |
| P225Y | 0.074 | 0.0847 | 0.0633 | 0.0749 | 0.0628 | 0.0947 | 0.0602 | 0.0722 | 0.0763 | 0.06 | 0.0467 | 0.0707 | 0.0483 | – | – | – |
| S158C | 0.0623 | 0.064 | 0.0624 | – | 0.0674 | 0.0616 | 0.0275 | 0.0618 | – | 0.0493 | 0.0528 | – | – | 0.0769 | 0.0588 | – |
| G136I | – | 0.0718 | – | 0.0536 | 0.0577 | – | – | – | – | – | 0.0552 | 0.0539 | – | 0.0765 | – | – |
| T159H | – | 0.0535 | 0.0703 | 0.0653 | 0.0738 | – | – | 0.0672 | – | – | 0.0669 | 0.0585 | 0.0633 | – | – | – |
| D79R | – | 0.0571 | 0.0617 | – | – | 0.0803 | – | 0.0666 | 0.0736 | – | 0.0807 | – | 0.0674 | 0.0664 | 0.0757 | 0.0608 |
| E107V | 0.0596 | – | 0.0575 | 0.066 | 0.0617 | 0.0575 | 0.0728 | 0.0796 | – | 0.0677 | 0.0548 | 0.0516 | – | – | 0.059 | – |
| E107Q | 0.0623 | – | 0.0592 | – | 0.0659 | – | – | 0.0637 | – | – | 0.0673 | 0.0634 | 0.0448 | 0.0672 | – | – |
| I86H | – | 0.0413 | 0.0411 | 0.0482 | 0.0356 | 0.0383 | – | 0.0306 | – | – | – | – | – | – | – | – |
| G150S | – | 0.0518 | 0.061 | 0.067 | 0.0668 | – | – | – | – | 0.0573 | 0.0567 | – | 0.0663 | 0.0629 | – | – |
| Q151K | – | 0.0652 | 0.0561 | – | – | 0.0249 | – | 0.0606 | – | – | 0.0598 | 0.0507 | – | – | – | – |
| N178L | – | 0.0521 | 0.0771 | 0.0618 | – | – | – | – | – | – | – | 0.0837 | 0.0713 | – | – | – |
| W199T | 0.0759 | – | 0.0464 | 0.0567 | – | 0.0531 | 0.0634 | 0.0745 | – | 0.0601 | 0.0491 | 0.0471 | 0.0598 | – | – | – |
| F226L | 0.0668 | 0.0554 | 0.0709 | – | – | 0.0703 | 0.0712 | – | 0.0411 | – | 0.0591 | 0.062 | 0.0624 | 0.0663 | 0.0562 | – |
| V58C | – | 0.0548 | 0.0617 | 0.055 | 0.0672 | – | – | 0.0777 | – | – | 0.0575 | 0.0514 | 0.0639 | 0.0669 | – | – |
| N177F | 0.058 | 0.0757 | 0.0723 | 0.0464 | 0.0687 | 0.0683 | – | 0.0705 | – | 0.073 | 0.0575 | 0.0632 | 0.0447 | – | – | – |
| K46G | – | 0.0641 | 0.049 | 0.0581 | 0.0552 | 0.0588 | – | 0.0593 | – | – | 0.0662 | 0.0588 | 0.0421 | 0.0653 | 0.0526 | – |
| E108W | 0.051 | 0.0493 | 0.056 | – | 0.059 | – | – | 0.0573 | – | – | 0.0554 | 0.0534 | 0.0429 | 0.0386 | 0.071 | – |
| N116G | 0.0525 | 0.0696 | 0.0769 | – | 0.0638 | 0.0634 | – | 0.0922 | – | 0.0575 | – | 0.0516 | 0.0555 | 0.0723 | – | – |

| Variant | area with substrate FNLYFQS | area with substrate GNLYFQS | area with substrate HNLYFQS | area with substrate INLYFQS | area with substrate LNLYFQS | area with substrate MNLYFQS | area with substrate NNLYFQS | area with substrate PNLYFQS | area with substrate QNLYFQS | area with substrate SNLYFQS | area with substrate TNLYFQS | area with substrate WNLYFQS | area with substrate YNLYFQS | area with substrate KNLYFQS | area with substrate VNLYFQS | area with substrate RNLYFQS |
| --- | --- | --- | --- | --- | --- | --- | --- | --- | --- | --- | --- | --- | --- | --- | --- | --- |
| S209M | 0.0584 | – | 0.058 | – | 0.0671 | 0.0636 | – | – | – | 0.0741 | – | 0.0674 | 0.06 | – | – | 0.0768 |
| C131G | 0.047 | – | – | – | – | – | – | – | – | 0.0755 | – | – | 0.0518 | 0.0804 | – | – |
| E189Q | 0.0491 | – | 0.0609 | – | 0.0615 | – | – | – | – | – | 0.0595 | 0.0551 | 0.079 | – | – | – |
| W144E | 0.0557 | 0.0698 | 0.0618 | 0.0588 | 0.0724 | 0.0701 | – | 0.0538 | – | 0.0664 | 0.07 | 0.0226 | – | 0.06 | – | – |
| Q234P | 0.071 | – | – | – | 0.0729 | 0.0444 | – | 0.0694 | – | – | 0.0679 | 0.0636 | 0.036 | 0.0539 | – | 0.0618 |
| D149A | – | 0.0714 | 0.0689 | 0.0238 | 0.0686 | – | – | – | 0.0585 | – | 0.0547 | 0.0425 | 0.0928 | 0.0553 | – | 0.0566 |
| F173V | 0.0703 | 0.0724 | 0.0745 | 0.0536 | 0.0447 | 0.0656 | 0.088 | 0.0676 | – | 0.0508 | 0.0628 | – | – | 0.0645 | 0.0785 | – |
| V229N | 0.0559 | 0.0614 | 0.0592 | 0.0709 | 0.0637 | – | – | 0.0614 | – | – | 0.0486 | 0.0562 | – | 0.071 | – | – |
| R204Y | 0.0535 | 0.0688 | 0.0679 | 0.0699 | – | 0.068 | 0.0757 | 0.0737 | 0.0445 | 0.0879 | 0.0661 | 0.0636 | 0.0715 | – | 0.0771 | – |
| H143V | 0.0523 | 0.0502 | 0.0573 | 0.0549 | 0.0596 | 0.0589 | 0.0777 | 0.036 | – | – | 0.0584 | 0.0617 | 0.0696 | 0.0637 | 0.0695 | – |
| W203H | 0.0591 | 0.068 | 0.0638 | 0.0612 | 0.0724 | – | – | 0.0597 | – | – | – | 0.0606 | 0.0562 | 0.0334 | – | 0.0495 |
| R102V | 0.0523 | 0.0509 | 0.0446 | 0.0821 | 0.0577 | 0.063 | 0.0273 | – | 0.0673 | – | 0.0429 | 0.0618 | 0.0557 | – | – | – |
| R102F | – | 0.034 | 0.0336 | 0.0376 | 0.0609 | – | 0.0352 | 0.0619 | – | 0.0624 | 0.0547 | 0.0401 | – | – | – | – |
| I85E | – | 0.056 | 0.0429 | – | – | – | – | – | – | – | 0.0492 | 0.0452 | – | – | 0.0433 | 0.0672 |
| W212T | 0.0546 | 0.056 | 0.0543 | 0.054 | 0.0653 | 0.0595 | – | – | – | – | 0.0664 | 0.0585 | 0.049 | 0.0606 | – | – |
| F41Y | – | 0.0591 | 0.0653 | – | 0.0585 | 0.117 | 0.0578 | 0.0729 | – | 0.0697 | 0.0641 | 0.0671 | 0.0885 | 0.0475 | 0.0726 | – |
| R109M | – | 0.0654 | 0.0636 | – | – | – | – | – | – | – | – | – | – | 0.079 | – | 0.0624 |
| P9E | – | 0.0734 | 0.0734 | – | – | 0.0586 | – | 0.0706 | – | – | 0.0598 | – | – | 0.0658 | – | – |
